Measured values reported in the supplement of paper PMC3334620.
Whole data set: some 33,000 sequences, median “E-score (-0.5 to 0.5)” near -0.043, cut for the highest 2% near 0.37. Some of the results follow.

Target: T1, Upc2 (UniProt Q12151)
T1 sequence: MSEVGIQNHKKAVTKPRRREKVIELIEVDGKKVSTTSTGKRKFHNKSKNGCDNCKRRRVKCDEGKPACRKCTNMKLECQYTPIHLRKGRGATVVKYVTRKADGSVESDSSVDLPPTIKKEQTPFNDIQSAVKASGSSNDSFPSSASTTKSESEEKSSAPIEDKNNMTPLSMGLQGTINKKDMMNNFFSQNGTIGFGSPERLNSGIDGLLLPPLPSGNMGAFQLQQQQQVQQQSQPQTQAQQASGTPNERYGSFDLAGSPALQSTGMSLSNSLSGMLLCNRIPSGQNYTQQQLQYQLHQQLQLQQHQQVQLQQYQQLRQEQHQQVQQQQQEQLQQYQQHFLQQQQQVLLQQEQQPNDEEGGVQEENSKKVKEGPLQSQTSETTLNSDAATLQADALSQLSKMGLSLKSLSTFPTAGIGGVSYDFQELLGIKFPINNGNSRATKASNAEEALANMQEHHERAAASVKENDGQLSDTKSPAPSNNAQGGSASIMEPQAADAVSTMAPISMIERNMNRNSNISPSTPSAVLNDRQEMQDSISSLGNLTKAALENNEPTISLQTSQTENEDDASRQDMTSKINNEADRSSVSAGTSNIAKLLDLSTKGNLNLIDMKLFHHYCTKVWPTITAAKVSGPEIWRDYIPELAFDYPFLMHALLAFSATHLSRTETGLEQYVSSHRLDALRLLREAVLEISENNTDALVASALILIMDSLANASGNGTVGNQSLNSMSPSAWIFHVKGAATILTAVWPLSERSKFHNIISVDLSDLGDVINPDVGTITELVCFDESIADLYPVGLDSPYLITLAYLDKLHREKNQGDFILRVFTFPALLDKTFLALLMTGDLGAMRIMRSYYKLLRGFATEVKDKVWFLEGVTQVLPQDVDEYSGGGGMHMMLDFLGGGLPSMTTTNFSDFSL
Assay: PBM E-score (8-mer binding enrichment) (E-score (-0.5 to 0.5)); higher = stronger / more preferred TF binding; most listed sequences are background and not binding sites
Conditions: protein concentration: 200 nM; construct: GST-full length
Procedure, shortened: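 Detection of bound protein used fluorescent anti-GST, with scans normalised by masliner. The proteins were GST-tagged yeast transcription factors applied at about 100-200 nM to universal all-10-mer Agilent arrays made double-stranded by primer extension. Each ungapped eight-base word, pooled with its reverse complement, was scored with an E-score from the Universal PBM Analysis Suite.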

Row | Sequence | PBM E-score
1 | CATAGGAG | -0.26
2 | ACTAACCA | -0.0101
3 | GCGCCTAA | -0.0731
4 | AGAGATTA | 0.0334
5 | AGGGGGAG | -0.162
6 | AGCCGTTG | -0.121
7 | ACTGAAGA | -0.198
8 | ATCTGAAT | -0.0917
9 | CCGTTGCC | -0.183
10 | CCCGGCGC | -0.105
11 | CACCGAAA | 0.0663
12 | CTCACAGC | -0.186
13 | ACCAATTG | -0.185
14 | ATCTGCGG | -0.0675
15 | AAATCCTA | -0.0215
16 | AGAACCGG | -0.121
17 | ACGCCTCC | -0.169
18 | ATCCCCAG | -0.186
19 | AGATACCA | -0.0472
20 | AGCGGAAA | 0.0457
21 | ACTCTCAT | 0.0282
22 | CCATGTAA | -0.0287

Row | Sequence | PBM E-score
23 | GGCTGTCA | -0.216
24 | ACAGGGAG | -0.171
25 | CCGAACTC | 0.065
26 | AGTGCAGG | -0.112
27 | TCAGGCCA | -0.217
28 | AGTGTTAG | -0.0186
29 | AGTCATTG | -0.135
30 | CCACGGCA | -0.067
31 | TAAGGCAA | 0.0186
32 | ATACCTTA | 0.0345
33 | CCTTCTCC | -0.226
34 | CCAACGTC | 0.0256
35 | CTCAATTA | -0.0164
36 | CGACACGA | 0.224
37 | AACGAAGC | 0.408
38 | ACCTGCAT | -0.186
39 | CTAATAAG | 0.0325
40 | ATCCTCAT | -0.0808
41 | AGGCAGTC | -0.0951
42 | GGTCCGCA | -0.087
43 | AAACCTGT | 0.225
44 | ACTAGCAT | -0.158

Row | Sequence | PBM E-score
45 | ACATATTC | -0.0293
46 | CAGACGGA | -0.13
47 | CGCATACC | 0.212
48 | AAGGCATG | -0.0289
49 | AGGCGTAA | 0.0563
50 | AGCAACCG | -0.00088
51 | CATCAGGG | -0.232
52 | AACGGGCT | 0.191
53 | GGTGATTA | -0.141
54 | ACCCTCCA | -0.254
55 | AATCGGCC | -0.133
56 | CCGATCCA | -0.178
57 | AAAGTTTC | -0.00066
58 | GAGTCGCA | 0.0248
59 | CAGGTGAG | -0.277
60 | GGCAATGA | -0.0827
61 | CACGCTGG | -0.234
62 | CAAGTACA | -0.101
63 | CTGACTTC | -0.125
64 | GGCCCCAC | -0.202
65 | AAGGATTA | -0.0641
66 | GTACATTA | 0.298

Row | Sequence | PBM E-score
67 | AGGTTGAC | -0.178
68 | AACTTGCG | 0.258
69 | ATCAGACA | -0.205
70 | CTAGTTAC | 0.0625
71 | GTCAAACA | 0.0917
72 | CCCATGGC | -0.25
73 | AATTTGCA | -0.216
74 | GCGTAACA | 0.118
75 | AGTTTGTG | -0.0631
76 | CTCATGAA | -0.00906
77 | ATAAACAA | 0.0523
78 | CAGGGGCA | -0.067
79 | CTCCTTCA | -0.0755
80 | AGGGATAT | -0.271
81 | CACACTAC | -0.119
82 | AATTTAAC | 0.228
83 | CCGTATCC | 0.331
84 | CATGTGCC | -0.0558
85 | GTCCCGTA | 0.25
86 | ATCCACGG | 0.00946
